Results are given in words; binding and its absence hold for the method and conditions named. Binding seen in cells or lysates may run through a third protein. Some entries that bind do so weakly or less than the wild type. For some assays here: Sequences can lack the tags named with a protein.
Legend:
[1] = molecular target: T1, EFA6B, endogenous in 786-O cells (human (endogenous in 786-O)) (UniProt Q8NDX1); assay: co-IP; anti-EFA6B mouse polyclonal antibody with Protein G-Sepharose, 5 mg lysate of LPA-stimulated 786-O cells in NP-40 buffer, 1 h at 4 °C; endogenous proteins; immunoblotting
T1 sequence: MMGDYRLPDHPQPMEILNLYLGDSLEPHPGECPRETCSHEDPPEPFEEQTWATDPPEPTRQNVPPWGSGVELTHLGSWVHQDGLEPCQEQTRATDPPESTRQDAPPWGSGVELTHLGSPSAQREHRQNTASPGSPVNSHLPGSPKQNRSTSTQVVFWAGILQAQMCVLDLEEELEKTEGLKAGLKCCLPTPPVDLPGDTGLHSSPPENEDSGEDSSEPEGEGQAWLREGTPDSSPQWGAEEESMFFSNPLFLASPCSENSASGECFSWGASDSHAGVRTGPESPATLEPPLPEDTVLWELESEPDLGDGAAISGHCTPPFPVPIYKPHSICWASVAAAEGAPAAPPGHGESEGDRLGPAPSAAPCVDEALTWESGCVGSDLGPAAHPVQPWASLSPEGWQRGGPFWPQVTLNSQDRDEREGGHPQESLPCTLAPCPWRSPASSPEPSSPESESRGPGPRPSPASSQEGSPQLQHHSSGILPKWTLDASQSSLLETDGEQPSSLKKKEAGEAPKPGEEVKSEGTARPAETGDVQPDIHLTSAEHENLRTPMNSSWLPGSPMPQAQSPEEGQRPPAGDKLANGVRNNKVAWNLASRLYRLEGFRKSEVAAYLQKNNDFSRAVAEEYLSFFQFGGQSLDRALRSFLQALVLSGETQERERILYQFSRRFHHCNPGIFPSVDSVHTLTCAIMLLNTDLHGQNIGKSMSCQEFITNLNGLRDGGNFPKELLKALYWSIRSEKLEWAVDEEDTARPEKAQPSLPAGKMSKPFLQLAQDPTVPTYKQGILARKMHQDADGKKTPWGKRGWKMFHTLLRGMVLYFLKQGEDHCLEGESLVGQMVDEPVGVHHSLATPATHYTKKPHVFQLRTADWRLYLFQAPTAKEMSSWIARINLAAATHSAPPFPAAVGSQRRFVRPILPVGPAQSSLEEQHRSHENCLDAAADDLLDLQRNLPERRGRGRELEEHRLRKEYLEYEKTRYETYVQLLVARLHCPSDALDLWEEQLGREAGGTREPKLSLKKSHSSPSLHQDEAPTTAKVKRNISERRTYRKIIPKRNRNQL

Protein sequences, listed by entry. Tags and fused reporters are not part of them. Lines headed by an entry give the natural chain unless they say otherwise; changes in a name come on top.
UniProt Q9ULH1: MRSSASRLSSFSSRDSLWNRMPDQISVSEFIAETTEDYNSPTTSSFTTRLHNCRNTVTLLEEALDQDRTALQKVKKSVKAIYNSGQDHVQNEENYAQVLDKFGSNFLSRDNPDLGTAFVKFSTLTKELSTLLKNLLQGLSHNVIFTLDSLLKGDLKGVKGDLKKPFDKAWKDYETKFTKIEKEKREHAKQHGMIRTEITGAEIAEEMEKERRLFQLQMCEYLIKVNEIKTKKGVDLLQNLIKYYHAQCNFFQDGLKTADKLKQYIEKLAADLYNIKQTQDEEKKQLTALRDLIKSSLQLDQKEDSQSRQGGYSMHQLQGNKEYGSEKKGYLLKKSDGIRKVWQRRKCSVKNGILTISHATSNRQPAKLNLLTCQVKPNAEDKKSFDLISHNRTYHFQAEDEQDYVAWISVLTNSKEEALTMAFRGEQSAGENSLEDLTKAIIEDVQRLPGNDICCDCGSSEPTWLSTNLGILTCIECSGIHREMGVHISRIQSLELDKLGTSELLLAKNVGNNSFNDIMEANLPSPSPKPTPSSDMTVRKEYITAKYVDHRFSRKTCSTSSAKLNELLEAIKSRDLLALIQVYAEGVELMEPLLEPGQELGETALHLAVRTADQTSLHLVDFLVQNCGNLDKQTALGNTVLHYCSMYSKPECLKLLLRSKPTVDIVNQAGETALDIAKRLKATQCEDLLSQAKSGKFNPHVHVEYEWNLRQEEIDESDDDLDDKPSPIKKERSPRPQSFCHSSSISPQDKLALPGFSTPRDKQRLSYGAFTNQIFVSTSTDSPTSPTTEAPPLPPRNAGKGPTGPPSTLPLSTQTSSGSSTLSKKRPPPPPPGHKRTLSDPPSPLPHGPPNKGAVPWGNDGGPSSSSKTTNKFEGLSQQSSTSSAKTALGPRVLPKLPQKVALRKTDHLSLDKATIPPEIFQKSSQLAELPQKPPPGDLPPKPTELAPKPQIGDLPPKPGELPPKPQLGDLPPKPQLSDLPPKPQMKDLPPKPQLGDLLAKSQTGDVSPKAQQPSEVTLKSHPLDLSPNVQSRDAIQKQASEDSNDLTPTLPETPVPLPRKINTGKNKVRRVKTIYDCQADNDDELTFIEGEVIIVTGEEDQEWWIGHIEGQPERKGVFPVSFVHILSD
UniProt P50148: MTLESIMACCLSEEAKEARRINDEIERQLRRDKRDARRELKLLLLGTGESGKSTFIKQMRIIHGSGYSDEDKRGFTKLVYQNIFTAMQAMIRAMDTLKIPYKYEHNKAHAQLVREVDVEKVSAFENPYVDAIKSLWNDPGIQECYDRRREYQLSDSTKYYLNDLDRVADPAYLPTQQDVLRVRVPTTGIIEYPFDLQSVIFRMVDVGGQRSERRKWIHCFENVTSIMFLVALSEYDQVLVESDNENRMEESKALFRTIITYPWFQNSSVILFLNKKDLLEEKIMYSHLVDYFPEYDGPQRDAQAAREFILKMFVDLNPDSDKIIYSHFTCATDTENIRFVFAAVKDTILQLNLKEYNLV
UniProt Q03113: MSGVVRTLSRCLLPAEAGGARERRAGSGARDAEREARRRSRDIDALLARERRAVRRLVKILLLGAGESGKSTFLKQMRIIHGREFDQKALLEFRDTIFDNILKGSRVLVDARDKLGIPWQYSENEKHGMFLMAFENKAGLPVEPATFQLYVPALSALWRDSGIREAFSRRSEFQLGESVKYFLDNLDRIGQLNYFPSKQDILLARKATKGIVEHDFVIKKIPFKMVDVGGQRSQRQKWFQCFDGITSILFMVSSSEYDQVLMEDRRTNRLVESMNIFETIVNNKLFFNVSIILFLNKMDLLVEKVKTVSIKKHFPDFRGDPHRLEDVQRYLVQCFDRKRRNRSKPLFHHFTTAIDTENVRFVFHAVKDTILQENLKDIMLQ
UniProt Q9HCM4: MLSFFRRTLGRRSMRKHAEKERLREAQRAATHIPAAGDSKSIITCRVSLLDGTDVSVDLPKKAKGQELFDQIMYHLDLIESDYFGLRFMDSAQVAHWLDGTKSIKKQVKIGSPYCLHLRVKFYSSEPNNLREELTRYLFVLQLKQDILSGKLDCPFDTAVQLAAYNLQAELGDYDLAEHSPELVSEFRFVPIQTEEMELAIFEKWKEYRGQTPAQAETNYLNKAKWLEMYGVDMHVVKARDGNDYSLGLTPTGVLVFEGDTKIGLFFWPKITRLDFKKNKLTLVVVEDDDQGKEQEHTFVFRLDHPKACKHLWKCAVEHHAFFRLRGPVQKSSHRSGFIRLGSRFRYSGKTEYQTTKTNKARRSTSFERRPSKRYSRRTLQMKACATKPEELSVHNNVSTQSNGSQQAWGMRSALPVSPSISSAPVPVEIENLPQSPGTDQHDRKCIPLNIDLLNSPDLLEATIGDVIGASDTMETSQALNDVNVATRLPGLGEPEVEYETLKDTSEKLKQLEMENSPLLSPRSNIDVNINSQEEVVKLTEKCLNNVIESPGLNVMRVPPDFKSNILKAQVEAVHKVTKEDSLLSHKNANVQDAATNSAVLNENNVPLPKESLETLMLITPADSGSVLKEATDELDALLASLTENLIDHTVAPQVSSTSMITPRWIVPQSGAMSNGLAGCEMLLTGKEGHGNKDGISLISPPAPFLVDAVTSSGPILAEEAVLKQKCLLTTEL
UniProt Q14344: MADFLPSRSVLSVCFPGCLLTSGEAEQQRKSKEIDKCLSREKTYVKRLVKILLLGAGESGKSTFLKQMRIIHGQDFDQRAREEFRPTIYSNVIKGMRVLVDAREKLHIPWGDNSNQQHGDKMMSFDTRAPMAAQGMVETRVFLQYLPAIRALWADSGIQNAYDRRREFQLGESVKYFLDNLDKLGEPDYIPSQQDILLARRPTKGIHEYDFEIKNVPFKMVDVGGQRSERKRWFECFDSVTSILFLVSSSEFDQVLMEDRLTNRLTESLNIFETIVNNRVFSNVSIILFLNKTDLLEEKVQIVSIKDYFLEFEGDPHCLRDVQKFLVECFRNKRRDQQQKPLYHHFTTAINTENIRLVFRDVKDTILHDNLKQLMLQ
UniProt P62873: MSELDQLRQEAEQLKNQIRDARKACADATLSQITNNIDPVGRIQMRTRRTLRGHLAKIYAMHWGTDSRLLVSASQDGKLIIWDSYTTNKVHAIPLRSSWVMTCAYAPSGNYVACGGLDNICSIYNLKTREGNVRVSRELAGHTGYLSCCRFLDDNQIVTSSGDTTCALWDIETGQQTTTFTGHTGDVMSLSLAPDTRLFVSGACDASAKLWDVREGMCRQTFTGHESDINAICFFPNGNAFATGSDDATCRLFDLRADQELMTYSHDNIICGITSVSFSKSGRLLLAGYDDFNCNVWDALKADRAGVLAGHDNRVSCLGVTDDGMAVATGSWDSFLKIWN
UniProt P04899: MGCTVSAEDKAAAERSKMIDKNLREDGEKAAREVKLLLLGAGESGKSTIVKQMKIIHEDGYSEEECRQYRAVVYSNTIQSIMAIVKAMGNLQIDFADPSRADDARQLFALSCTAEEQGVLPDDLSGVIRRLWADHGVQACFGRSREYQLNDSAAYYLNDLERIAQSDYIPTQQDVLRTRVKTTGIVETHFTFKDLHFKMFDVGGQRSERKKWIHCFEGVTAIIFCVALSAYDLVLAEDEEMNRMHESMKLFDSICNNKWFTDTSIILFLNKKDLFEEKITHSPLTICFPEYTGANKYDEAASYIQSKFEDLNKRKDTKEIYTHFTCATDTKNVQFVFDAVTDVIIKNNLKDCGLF

[2] = molecular target: T2, HA-EFA6B, full length, expressed in 786-O cells instead of the endogenous EFA6B (human) (UniProt Q8NDX1); assay: co-IP; anti-HA immunoprecipitation (Protein G-Sepharose, 1 h at 4 °C) from 750 μg lysate of 786-O cells expressing HA-EFA6B or its mutant instead of endogenous EFA6B; cells stimulated with LPA for 5 min or left untreated; NP-40 buffer; endogenous G-proteins detected by immunoblotting
T2 sequence: T1 sequence

[3] = molecular target: T3, HA-EFA6B RGS-like domain-deleted mutant (Δ121–324aa), expressed in 786-O cells in which endogenous EFA6B was silenced (human) (UniProt Q8NDX1); assay: as above
T3 sequence: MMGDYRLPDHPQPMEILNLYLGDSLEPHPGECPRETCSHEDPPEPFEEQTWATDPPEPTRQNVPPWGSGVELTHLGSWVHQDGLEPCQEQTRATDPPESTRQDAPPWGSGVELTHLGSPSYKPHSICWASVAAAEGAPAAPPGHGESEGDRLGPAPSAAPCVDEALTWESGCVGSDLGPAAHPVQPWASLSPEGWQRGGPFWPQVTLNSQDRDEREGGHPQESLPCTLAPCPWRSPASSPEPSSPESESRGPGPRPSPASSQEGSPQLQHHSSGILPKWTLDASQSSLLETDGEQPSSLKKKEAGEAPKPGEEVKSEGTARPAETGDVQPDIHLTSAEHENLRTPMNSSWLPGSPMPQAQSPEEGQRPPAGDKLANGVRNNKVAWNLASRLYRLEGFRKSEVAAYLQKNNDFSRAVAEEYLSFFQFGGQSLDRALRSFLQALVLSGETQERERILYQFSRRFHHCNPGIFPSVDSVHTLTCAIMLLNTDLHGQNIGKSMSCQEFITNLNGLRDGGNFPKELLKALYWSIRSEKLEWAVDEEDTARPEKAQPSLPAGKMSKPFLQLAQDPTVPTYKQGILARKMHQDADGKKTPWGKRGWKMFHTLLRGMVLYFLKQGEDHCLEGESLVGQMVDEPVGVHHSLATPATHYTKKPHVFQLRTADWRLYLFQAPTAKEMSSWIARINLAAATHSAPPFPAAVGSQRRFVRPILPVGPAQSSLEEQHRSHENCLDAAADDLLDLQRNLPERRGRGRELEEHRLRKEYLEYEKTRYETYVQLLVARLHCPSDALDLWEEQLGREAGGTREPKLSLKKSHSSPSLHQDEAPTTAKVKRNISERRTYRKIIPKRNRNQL

[4] = molecular target: AMAP1, endogenous in 786-O cells (human (endogenous in 786-O)) (UniProt Q9ULH1); assay: co-IP; anti-AMAP1 mouse monoclonal antibody with Protein A-Sepharose, lysate of LPA-stimulated 786-O cells in NP-40 buffer, 1 h at 4 °C; endogenous proteins; immunoblotting
[5] = molecular target: T4, HA-EFA6B, full length, expressed in 293T cells (human) (UniProt Q8NDX1); assay: co-IP; 293T cells co-transfected with HA-tagged EFA6 family member or EFA6B mutant and Gα12QL, Gα13QL, GαqQL or Gα12GA; lysed after 36 h in NP-40 buffer; anti-HA immunoprecipitation and immunoblotting
T4 sequence: T1 sequence

Row | Substance | binding [1] | binding [2] | also measured
1 | Gαq, endogenous in 786-O cells (from UniProt P50148 1-359) | no binding | no binding | 
2 | Gα12, endogenous in 786-O cells (from UniProt Q03113 1-381) | binds | binds | binding [3]: no binding
3 | EPB41L5, endogenous in 786-O cells (from UniProt Q9HCM4 1-733) |  |  | binding [4]: binds
4 | Gα13, endogenous in 786-O cells (from UniProt Q14344 1-377) | no binding | no binding | 
5 | Gβ1, endogenous in 786-O cells (from UniProt P62873 1-340) |  | no binding | 
6 | Gα12G230A, dominant-negative (GTP-binding-defective) mutant of Gα12 (from UniProt Q03113 1-381) |  |  | binding [5]: no binding
7 | Gαi2, endogenous in 786-O cells (from UniProt P04899 1-355) |  | no binding | 
